Laboratory results from patent US9101632B2, “Kinase inhibitors, prodrug forms thereof and their use in therapy” (AUCKLAND UNISERVICES LIMITED, priority 2009, dated 2015).

Biological target: erbB1 (EGFR) (Homo sapiens, UniProt P00533)
Experiment: Inhibition of erbB1 autophosphorylation in EGF-stimulated intact A431 cells (Western immunoblotting)
Assay type: cell-based
Settings: 1 hour treatment
Method: A431 cells were seeded into 6 well plates (with αMEM+5% FCS). The following day, plates were washed once with serum-free medium and grown for 18 hours in serum-free medium (αMEM) before being exposed to a range of inhibitor or prodrug concentrations for 1 hour and then stimulated for 15 minutes with 100 ng/ml epidermal growth factor (EGF receptor ligand). Next cells were washed with ice cold PBS and lysed in modified RIPA buffer on ice (30 min). Lysates were vortexed and clarify by spinning before protein concentrations of samples was determined by BCA assay. […] All antibodies were diluted in 2% BSA TBS-Tween 0.1%. To detect phospho-EGFR (Tyr 1068) the monoclonal antibody (1:500; Cell Signalling #2234) was incubated overnight at 4° C. and binding was detected with goat-anti-Rabbit-IgG-HRP conjugated secondary antibody (1:5000; Santa Cruz #SC2054; 3 h RT). To detect downstream phospho-p44/42 MAPK(Erk 1/2) (Thr202/Tyr 204) the monoclonal antibody (Cell Signalling #4370) was used at a 1:500 dilution. The blot was then treated with Goat anti-rabbit IgG-HRP conjugated secondary antibody (Santa Cruz Biotechnology, Inc. sc-2054) for three hours at a ratio of 1:5000. To normalise for any inaccuracy in gel loading, each blot was probed with anti-β-actin antibody (Abacus ALS #MAB-1501R, 1:2000 dilution). […] Densitometry was determined using Image J software. […]

erbB1 (EGFR), sequence (P00533 25-1210): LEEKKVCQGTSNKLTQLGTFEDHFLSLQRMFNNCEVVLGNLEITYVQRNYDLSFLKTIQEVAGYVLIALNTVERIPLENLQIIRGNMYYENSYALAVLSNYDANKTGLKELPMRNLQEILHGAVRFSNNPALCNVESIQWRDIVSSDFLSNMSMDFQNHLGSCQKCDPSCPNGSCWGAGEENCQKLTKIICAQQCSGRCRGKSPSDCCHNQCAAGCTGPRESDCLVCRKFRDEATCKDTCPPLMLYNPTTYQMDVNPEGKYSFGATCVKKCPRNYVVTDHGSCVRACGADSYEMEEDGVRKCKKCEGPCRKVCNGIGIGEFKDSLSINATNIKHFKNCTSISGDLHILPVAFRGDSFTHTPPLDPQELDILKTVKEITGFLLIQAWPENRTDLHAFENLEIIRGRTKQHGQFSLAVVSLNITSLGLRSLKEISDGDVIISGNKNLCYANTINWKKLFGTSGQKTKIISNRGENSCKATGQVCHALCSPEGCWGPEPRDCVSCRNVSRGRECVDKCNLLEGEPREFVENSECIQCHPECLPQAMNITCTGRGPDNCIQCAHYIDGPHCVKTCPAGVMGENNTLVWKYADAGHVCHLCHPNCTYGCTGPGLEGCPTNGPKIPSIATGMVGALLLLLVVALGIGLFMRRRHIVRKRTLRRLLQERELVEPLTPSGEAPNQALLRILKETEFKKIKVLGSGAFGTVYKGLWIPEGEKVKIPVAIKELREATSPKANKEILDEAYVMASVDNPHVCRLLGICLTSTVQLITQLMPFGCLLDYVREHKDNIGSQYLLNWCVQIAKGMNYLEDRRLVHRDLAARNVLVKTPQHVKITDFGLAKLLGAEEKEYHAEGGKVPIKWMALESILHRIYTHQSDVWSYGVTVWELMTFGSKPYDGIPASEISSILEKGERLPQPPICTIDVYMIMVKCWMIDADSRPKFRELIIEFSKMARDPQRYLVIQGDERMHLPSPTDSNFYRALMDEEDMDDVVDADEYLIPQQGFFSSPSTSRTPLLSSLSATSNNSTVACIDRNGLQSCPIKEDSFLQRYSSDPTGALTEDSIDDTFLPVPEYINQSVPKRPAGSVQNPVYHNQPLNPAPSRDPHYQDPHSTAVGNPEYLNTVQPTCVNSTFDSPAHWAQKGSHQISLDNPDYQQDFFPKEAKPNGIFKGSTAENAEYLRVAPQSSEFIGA

Question: How did the “fold less effective at inhibiting erbB1 autophosphorylation than its respective inhibitor, compound 3” value turn out when `Cn1cnc([N+](=O)[O-])c1C[N+](C)(C)C/C=C/C(=O)Nc1cc2c(Nc3ccc(OCc4ccccn4)c(Cl)c3)ncnc2cn1` [Compound 15, (2E)-4-({4-[3-chloro-4-(2-pyridinylmethoxy)anilino]pyrido[3,4-d]pyrimidin-6-yl}amino)-N,N-dimethyl-N-[(1-methyl-4-nitro-1H-imidazol-5-yl)methyl]-4-oxo-2-buten-1-ammonium bromide] was run?
Answer: Its value is 110 fold.
